Assay results published in the supplement of paper PMC11348887.
Structures can show the parent of a compound that is named as a salt. The list shows a part of the results. Cut-off read from the data, not from the text of the source: active = -2 or less and inactive = the rest. Single values are uncertain, as repeats are few or missing.

system: hPSC-derived cortical neurons (WA09); test: nuclei number (viability) z-score; higher = more surviving cells; settings: 5 µM; treatment: days 7-14 after plating, readout day 21
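Note: nuclei counted from DAPI counterstain by automated high-content image analysis, four fields per well at ×20 in 384-well plates, with sequential b-score then z-score normalization.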

**Q.** Which “nuclei number (z-score)” value does the source give for `Cc1cc(Nc2ncc(Cl)c(Nc3ccccc3S(=O)(=O)C(C)C)n2)c(OC(C)C)cc1C1CCNCC1` here?
**A.** active: -5.22

**Q.** Which “nuclei number (z-score)” value does the source give for `O=C(O)Cc1cc(I)c(Oc2ccc(O)c(I)c2)c(I)c1` [Tiratricol] here?
**A.** inactive: 0.93

**Q.** For `COCCCOc1ccnc(C[S+]([O-])c2nc3ccccc3[nH]2)c1C` (centres undefined) [Rebeprazole sodium], which “nuclei number (z-score)” value is on record?
**A.** inactive: 5.28

**Q.** `CCC(CC)(NC(=O)C(C)C)C(=O)N[C@@H](CCCN=C(N)N)C(=O)NC1(C(=O)NC(c2ccc(F)cc2)c2ccc(F)cc2)CCCC1` was tested. Which “nuclei number (z-score)” value did it give?
**A.** inactive: 2.02

**Q.** `Nc1ncc(-c2ccnc(Nc3ccncc3)n2)c(CC2CC2)n1` was tested. Which “nuclei number (z-score)” value did it give?
**A.** inactive: -1.9

**Q.** Which “nuclei number (z-score)” value does the source give for `C[C@@H](Oc1cc(-c2cnn(C3CCNCC3)c2)cnc1N)c1c(Cl)ccc(F)c1Cl` here?
**A.** inactive: 0.303

**Q.** For `CC(C)CCn1c(CN2CCN(C(=O)C3CC3)CC2)nc2c1c(=O)n(C)c(=O)n2C`, which “nuclei number (z-score)” value is on record?
**A.** inactive: 5.22

**Q.** `CC(C)(O)CNc1nc(Nc2ccnc(C(F)(F)F)c2)nc(-c2cccc(C(F)(F)F)n2)n1` [Enasidenib (AG-221)] was tested. Which “nuclei number (z-score)” value did it give?
**A.** inactive: 0.0308

**Q.** How did the “nuclei number (z-score)” value turn out when `CNCC[C@@H](Oc1ccccc1C)c1ccccc1` [Atomoxetine HCl] was run?
**A.** inactive: -0.907

**Q.** `Cc1ccc(C(=O)C(C)CN2CCCCC2)cc1` (centres undefined) [Tolperisone HCl] was tested. Which “nuclei number (z-score)” value did it give?
**A.** inactive: 1.44

**Q.** With `CCCCC1C(=O)N(c2ccccc2)N(c2ccccc2)C1=O` [Phenylbutazone] as the molecule, how does the “nuclei number (z-score)” value read?
**A.** inactive: -1.98

**Q.** For `Nc1ncnc2c1nc(Br)n2[C@@H]1O[C@@H]2COP(=O)(O)O[C@H]2[C@H]1O` [8-Bromo-cAMP], which “nuclei number (z-score)” value is on record?
**A.** inactive: 0.281

**Q.** Which “nuclei number (z-score)” value does the source give for `COc1cc2ncnc(Nc3ccc(F)c(Cl)c3)c2cc1NC(=O)/C=C/CN1CCCCC1` here?
**A.** inactive: 0.743

**Q.** `Cc1ccc(C(=O)N(CCCN)[C@@H](c2nc3cc(Cl)ccc3c(=O)n2Cc2ccccc2)C(C)C)cc1` was tested. Which “nuclei number (z-score)” value did it give?
**A.** active: -3.03

**Q.** How did the “nuclei number (z-score)” value turn out when `CC1=CC(=O)c2ccccc2C1=O` [Menadione] was run?
**A.** inactive: 0.222

**Q.** Which “nuclei number (z-score)” value does the source give for `CC(=O)/N=c1/sc(S(N)(=O)=O)nn1C` [Methazolamide] here?
**A.** inactive: 0.545

**Q.** Which “nuclei number (z-score)” value does the source give for `CCCc1nc2c(C)cc(-c3nc4ccccc4n3C)cc2n1Cc1ccc(-c2ccccc2C(=O)O)cc1` [Telmisartan] here?
**A.** inactive: -0.276

**Q.** With `COCCCOc1cc(C[C@@H](C[C@H](N)[C@@H](O)C[C@H](C(=O)NCC(C)(C)C(N)=O)C(C)C)C(C)C)ccc1OC` [Aliskiren Hemifumarate] as the molecule, how does the “nuclei number (z-score)” value read?
**A.** inactive: 1.32

**Q.** How did the “nuclei number (z-score)” value turn out when `CCCCOC(=O)c1ccc(O)cc1` [Butylparaben] was run?
**A.** inactive: 0.585

**Q.** `CN1[C@@H]2CC[C@H]1C[C@@H](OC(c1ccccc1)c1ccccc1)C2` [Benztropine mesylate] was tested. Which “nuclei number (z-score)” value did it give?
**A.** inactive: -0.216

**Q.** With `CO/N=C(\C(=O)N[C@@H]1C(=O)N2C(C(=O)O)=C(CSC(=O)c3ccco3)CS[C@H]12)c1csc(N)n1` [Ceftiofur HCl] as the molecule, how does the “nuclei number (z-score)” value read?
**A.** inactive: 2.97

**Q.** Which “nuclei number (z-score)” value does the source give for `Cc1nn(C)c(COc2ccc(N3CCN(S(=O)(=O)N(C)C)CC3)cc2)c1-c1cccc2c(CCCOc3cccc4ccccc34)c(C(=O)O)n(CCN3CCOCC3)c12` here?
**A.** inactive: 0.136

**Q.** Which “nuclei number (z-score)” value does the source give for `CCCC(=O)Nc1ccc(OCC(O)CNC(C)C)c(C(C)=O)c1` (centres undefined) [Acebutolol HCl] here?
**A.** inactive: -1.16

**Q.** Which “nuclei number (z-score)” value does the source give for `COc1ccnc2[nH]cc(C(=O)C(=O)N3CCN(C(=O)c4ccccc4)C[C@H]3C)c12` here?
**A.** inactive: 2.32

**Q.** With `C[C@@H]1O[C@@H](OC[C@H]2O[C@@H](Oc3c(-c4ccc(O)c(O)c4)oc4cc(O)cc(O)c4c3=O)[C@H](O)[C@@H](O)[C@@H]2O)[C@H](O)[C@H](O)[C@H]1O` [Rutin] as the molecule, how does the “nuclei number (z-score)” value read?
**A.** inactive: -0.0429

**Q.** How did the “nuclei number (z-score)” value turn out when `NC(=O)Nc1sc(-c2ccc(F)cc2)cc1C(N)=O` was run?
**A.** inactive: -1.1

**Q.** `CC(C)(C)OC(=O)N[C@H]1CCCCC/C=C\[C@@H]2C[C@@]2(C(=O)NS(=O)(=O)C2CC2)NC(=O)[C@@H]2C[C@@H](OC(=O)N3Cc4cccc(F)c4C3)CN2C1=O` [Danoprevir (ITMN-191)] was tested. Which “nuclei number (z-score)” value did it give?
**A.** inactive: 0.194

**Q.** `O=C(Nc1ccccc1)OCC(CN1CCCCC1)OC(=O)Nc1ccccc1` (centres undefined) [Diperodon HCl] was tested. Which “nuclei number (z-score)” value did it give?
**A.** inactive: 2.82

**Q.** Which “nuclei number (z-score)” value does the source give for `C[C@H](CCC(=O)O)[C@H]1CC[C@H]2[C@@H]3C[C@H](O)[C@@H]4C[C@H](O)CC[C@]4(C)[C@H]3CC[C@]12C` [Hyodeoxycholic acid (HDCA)] here?
**A.** inactive: 0.0584

**Q.** For `N=C(N)c1ccc(N=NNc2ccc(C(=N)N)cc2)cc1` [Diminazene Aceturate], which “nuclei number (z-score)” value is on record?
**A.** inactive: 11.4

**Q.** For `C[C@@H]1O[C@@H](O[C@H]2[C@H](Oc3cc(O)c4c(c3)O[C@H](c3ccc(O)cc3)CC4=O)O[C@H](CO)[C@@H](O)[C@@H]2O)[C@H](O)[C@H](O)[C@H]1O` [Naringin], which “nuclei number (z-score)” value is on record?
**A.** inactive: 7.44

**Q.** With `Cn1cc(C2=C(c3cn(CCCSC(=N)N)c4ccccc34)C(=O)NC2=O)c2ccccc21` [Ro 31-8220 Mesylate] as the molecule, how does the “nuclei number (z-score)” value read?
**A.** active: -8.88

**Q.** `N[C@@H](CC(=O)N1CCn2c(nnc2C(F)(F)F)C1)Cc1cc(F)c(F)cc1F` [Sitagliptin phosphate monohydrate] was tested. Which “nuclei number (z-score)” value did it give?
**A.** inactive: 1.22

**Q.** With `Nc1nccc2c1ncn2C1C=C(CO)C(O)C1O` (centres undefined) [3-Deazaneplanocin A (DZNeP)] as the molecule, how does the “nuclei number (z-score)” value read?
**A.** inactive: 1.92

**Q.** How did the “nuclei number (z-score)” value turn out when `Cc1nc(N(C)C(=O)Cc2ccc(-c3ccccn3)cc2)sc1S(N)(=O)=O` [Pritelivir (BAY 57-1293)] was run?
**A.** inactive: 0.449

**Q.** With `Cn1cc(/C=C/C(=O)c2cccc(F)c2)cc1/C=C/C(=O)NO` as the molecule, how does the “nuclei number (z-score)” value read?
**A.** inactive: 0.028

**Q.** How did the “nuclei number (z-score)” value turn out when `COc1nc(C)cnc1NS(=O)(=O)c1cccnc1-c1ccc(-c2nnco2)cc1` [Zibotentan (ZD4054)] was run?
**A.** inactive: -0.333

**Q.** Which “nuclei number (z-score)” value does the source give for `C/C(O)=C(\C#N)C(=O)Nc1ccc(C(F)(F)F)cc1` [Teriflunomide] here?
**A.** inactive: -0.0389

**Q.** `CO[C@H]1C[C@@H]2CC[C@@H](C)[C@@](O)(O2)C(=O)C(=O)N2CCCC[C@H]2C(=O)O[C@H]([C@H](C)C[C@@H]2CC[C@H](n3cnnn3)[C@H](OC)C2)CC(=O)[C@H](C)/C=C(\C)[C@@H](O)[C@@H](OC)C(=O)[C@H](C)C[C@H](C)/C=C/C=C/C=C/1C` [Zotarolimus(ABT-578)] was tested. Which “nuclei number (z-score)” value did it give?
**A.** inactive: -0.497
